In all, about 33,000 sequences were measured (“E-score (-0.5 to 0.5)”: median about -0.021, highest 2% from about 0.32 on). The list shows a part of the results.

The assay deals with T1, Zap1 (UniProt P47043).
T1 sequence: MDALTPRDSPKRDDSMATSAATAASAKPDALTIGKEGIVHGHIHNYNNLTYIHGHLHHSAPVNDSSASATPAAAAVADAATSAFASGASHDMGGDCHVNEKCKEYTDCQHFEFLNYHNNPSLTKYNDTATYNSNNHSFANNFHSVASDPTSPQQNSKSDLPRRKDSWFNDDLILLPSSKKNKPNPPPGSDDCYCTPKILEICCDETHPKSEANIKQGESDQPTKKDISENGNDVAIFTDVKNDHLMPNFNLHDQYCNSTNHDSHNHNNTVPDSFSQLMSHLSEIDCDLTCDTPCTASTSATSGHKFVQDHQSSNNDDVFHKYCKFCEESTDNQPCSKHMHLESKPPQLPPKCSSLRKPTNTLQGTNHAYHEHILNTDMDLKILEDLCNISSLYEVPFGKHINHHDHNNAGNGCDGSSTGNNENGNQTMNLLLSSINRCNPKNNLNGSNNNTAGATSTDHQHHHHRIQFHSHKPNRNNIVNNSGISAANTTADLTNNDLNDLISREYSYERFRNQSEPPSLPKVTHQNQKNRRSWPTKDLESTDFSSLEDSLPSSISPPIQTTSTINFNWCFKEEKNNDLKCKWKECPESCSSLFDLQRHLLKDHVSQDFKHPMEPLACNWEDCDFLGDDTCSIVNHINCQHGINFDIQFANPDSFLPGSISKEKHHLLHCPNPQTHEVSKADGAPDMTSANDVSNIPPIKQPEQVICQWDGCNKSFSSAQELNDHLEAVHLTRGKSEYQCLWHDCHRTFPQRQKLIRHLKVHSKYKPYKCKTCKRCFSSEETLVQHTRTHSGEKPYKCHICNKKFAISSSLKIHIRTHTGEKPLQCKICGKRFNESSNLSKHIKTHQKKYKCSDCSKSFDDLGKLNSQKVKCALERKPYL
As to the kind of experiment: PBM E-score (8-mer binding enrichment) (E-score (-0.5 to 0.5)); higher = stronger / more preferred TF binding; most listed sequences are background and not binding sites. To be noted: protein concentration: 200 nM; construct: GST-full length. The gist of the method: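 Detection of bound protein used fluorescent anti-GST, with scans normalised by masliner. The proteins were GST-tagged yeast transcription factors applied at about 100-200 nM to universal all-10-mer Agilent arrays made double-stranded by primer extension. Each ungapped eight-base word, pooled with its reverse complement, was scored with an E-score from the Universal PBM Analysis Suite.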
AGTGATTA: the “PBM E-score” value is 0.11.

As to CCCTCCGA, the “PBM E-score” value is -0.0396.

With GGCTCTCA, the “PBM E-score” value was -0.245.

Turning to CATACTTA, the “PBM E-score” value amounted to 0.012.

As for CGACTATC, the “PBM E-score” value came to 0.00971.

Consider ATAGAAAT, for which the “PBM E-score” value came to 0.162.

As to ATCCCCAA, the “PBM E-score” value amounted to 0.0399.

With GGGAGATA, the “PBM E-score” value was -0.215.

In the case of AGAGAATC, the “PBM E-score” value is -0.152.

Take CGAACACA: the “PBM E-score” value was 0.085.

For CCGATCGC, the “PBM E-score” value was determined as 0.0373.

On to TCATCGAA, for which the “PBM E-score” value is -0.0562.

On to AGTATGAT, for which the “PBM E-score” value was found to be 0.125.

Take CGCGGTTA: the “PBM E-score” value worked out at 0.452.

As for ACGTTTTG, the “PBM E-score” value is 0.0918.

CCGGTGAG: the “PBM E-score” value was -0.0983.

For the sequence GTCTAAAA, the “PBM E-score” value is -0.00945.

In the case of GGCGAGCA, the “PBM E-score” value was -0.231.

For the sequence GGATTGCA, the “PBM E-score” value is -0.127.

For AAAGGTGA, the “PBM E-score” value is 0.25.

Take AGAAAAGG: the “PBM E-score” value was determined as 0.0723.

ATAAACGG: the “PBM E-score” value came to 0.118.

Regarding TACATACA, the “PBM E-score” value came out at 0.00913.

On to GATGATAC, for which the “PBM E-score” value was -0.0151.

As to GCTAATAA, the “PBM E-score” value was -0.0122.

For the sequence CAGGCAGG, the “PBM E-score” value is -0.155.

Turning to GCCCGCGC, the “PBM E-score” value is -0.0387.

With AATCGTCA, the “PBM E-score” value was found to be 0.0319.

For CACCCCTG, the “PBM E-score” value is -0.0914.

For ACCGTAGG, the “PBM E-score” value was -0.0554.

Regarding CCTATCCG, the “PBM E-score” value was -0.0601.

CGCGTTAA: the “PBM E-score” value was 0.117.

Regarding CGGCGACG, the “PBM E-score” value is -0.175.

With AATCGTGA, the “PBM E-score” value is 0.0307.

For CCTGTACG, the “PBM E-score” value is -0.0288.

For AGTGTCGG, the “PBM E-score” value is -0.122.

For the sequence CACGTCGG, the “PBM E-score” value is -0.303.

For CAATCGGA, the “PBM E-score” value was -0.102.

Regarding ACGTCAGT, the “PBM E-score” value is -0.317.

Turning to GACGTATA, the “PBM E-score” value was -0.238.

As for CACGCCAA, the “PBM E-score” value was -0.19.

For ATAAAAGC, the “PBM E-score” value is -0.178.

For TTACCAAA, the “PBM E-score” value came to 0.211.

Take AGTGGTTC: the “PBM E-score” value amounted to 0.129.

GATGAGGC: the “PBM E-score” value is -0.098.

As for GAAGCGCA, the “PBM E-score” value is -0.224.

GCCTCTAC: the “PBM E-score” value was 0.0481.

With CCAGCAGC, the “PBM E-score” value was -0.134.

In the case of AGGGTCAA, the “PBM E-score” value was found to be 0.416.

Consider GGTAATAC, for which the “PBM E-score” value stood at 0.248.

In the case of ATAAGTTA, the “PBM E-score” value turned out to be 0.132.

Take GTCGTAAC: the “PBM E-score” value worked out at 0.256.

Regarding AGCCCTTA, the “PBM E-score” value was -0.176.

As to ACCGATAA, the “PBM E-score” value was 0.24.

Regarding CTGTAGTC, the “PBM E-score” value is -0.0922.

ACTAGCAG: the “PBM E-score” value turned out to be 0.00907.

On to AGCTCTAC, for which the “PBM E-score” value is -0.0949.

With ATACTAAG, the “PBM E-score” value worked out at 0.0574.

With CCTTGCCA, the “PBM E-score” value is -0.0128.

GAATTCCC: the “PBM E-score” value is -0.00977.

CCGAGAAA: the “PBM E-score” value was 0.187.

For ATGCTGCC, the “PBM E-score” value was -0.17.

Turning to CTCAGTCC, the “PBM E-score” value was -0.304.

Regarding CAACCATA, the “PBM E-score” value came to 0.0705.

With CGAATCAA, the “PBM E-score” value is 0.0378.

Turning to CGCGTGCA, the “PBM E-score” value is -0.0396.

For the sequence GCGTAAGC, the “PBM E-score” value was -0.239.

For the sequence CCGTGTAG, the “PBM E-score” value was found to be 0.0575.

In the case of CAGCTATA, the “PBM E-score” value was found to be 0.0481.

Take ATGCATAG: the “PBM E-score” value was -0.12.

As for CGCTAAGA, the “PBM E-score” value is 0.0009.

On to GGATTCCA, for which the “PBM E-score” value came out at 0.0356.

As for CGCCCCTC, the “PBM E-score” value was determined as 0.0497.

For CACGGGTC, the “PBM E-score” value is 0.215.

Consider ATCACATA, for which the “PBM E-score” value was determined as 0.155.

For CACCATGA, the “PBM E-score” value worked out at 0.00417.

As to CAGATCTA, the “PBM E-score” value is -0.244.

For GACGGTAC, the “PBM E-score” value is 0.183.

In the case of GATGAGCC, the “PBM E-score” value is -0.204.

Take GGCTTCCA: the “PBM E-score” value was -0.298.

As for ATGATAAC, the “PBM E-score” value came to 0.201.

In the case of ATGCAACG, the “PBM E-score” value is -0.161.

Consider AGGTATGA, for which the “PBM E-score” value amounted to 0.291.

For the sequence ACAACGTC, the “PBM E-score” value was -0.203.

For ATGACCGC, the “PBM E-score” value is 0.302.

For CTTTCCGA, the “PBM E-score” value was 0.0215.

The record behind these values is the supplement of paper PMC3334620.
